The campaign covered roughly 310,000 compounds. About 14,000 (4.5%) showed an effect of 50% or more. Effects have a minus sign here. Some of the results follow.

The record followed here is article PMC4336329 (PLoS ONE, 2015).
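Also: peak tail current of the secondary pulse compared with the same well before compound.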

For this test, the target named is human ether-à-go-go-related gene (hERG) potassium channel (human, UniProt Q12809). Briefly: primary screen, population patch clamp on CHO cells stably expressing hERG.
Sequence of human ether-à-go-go-related gene (hERG) potassium channel (Q12809 whole entry, looked up): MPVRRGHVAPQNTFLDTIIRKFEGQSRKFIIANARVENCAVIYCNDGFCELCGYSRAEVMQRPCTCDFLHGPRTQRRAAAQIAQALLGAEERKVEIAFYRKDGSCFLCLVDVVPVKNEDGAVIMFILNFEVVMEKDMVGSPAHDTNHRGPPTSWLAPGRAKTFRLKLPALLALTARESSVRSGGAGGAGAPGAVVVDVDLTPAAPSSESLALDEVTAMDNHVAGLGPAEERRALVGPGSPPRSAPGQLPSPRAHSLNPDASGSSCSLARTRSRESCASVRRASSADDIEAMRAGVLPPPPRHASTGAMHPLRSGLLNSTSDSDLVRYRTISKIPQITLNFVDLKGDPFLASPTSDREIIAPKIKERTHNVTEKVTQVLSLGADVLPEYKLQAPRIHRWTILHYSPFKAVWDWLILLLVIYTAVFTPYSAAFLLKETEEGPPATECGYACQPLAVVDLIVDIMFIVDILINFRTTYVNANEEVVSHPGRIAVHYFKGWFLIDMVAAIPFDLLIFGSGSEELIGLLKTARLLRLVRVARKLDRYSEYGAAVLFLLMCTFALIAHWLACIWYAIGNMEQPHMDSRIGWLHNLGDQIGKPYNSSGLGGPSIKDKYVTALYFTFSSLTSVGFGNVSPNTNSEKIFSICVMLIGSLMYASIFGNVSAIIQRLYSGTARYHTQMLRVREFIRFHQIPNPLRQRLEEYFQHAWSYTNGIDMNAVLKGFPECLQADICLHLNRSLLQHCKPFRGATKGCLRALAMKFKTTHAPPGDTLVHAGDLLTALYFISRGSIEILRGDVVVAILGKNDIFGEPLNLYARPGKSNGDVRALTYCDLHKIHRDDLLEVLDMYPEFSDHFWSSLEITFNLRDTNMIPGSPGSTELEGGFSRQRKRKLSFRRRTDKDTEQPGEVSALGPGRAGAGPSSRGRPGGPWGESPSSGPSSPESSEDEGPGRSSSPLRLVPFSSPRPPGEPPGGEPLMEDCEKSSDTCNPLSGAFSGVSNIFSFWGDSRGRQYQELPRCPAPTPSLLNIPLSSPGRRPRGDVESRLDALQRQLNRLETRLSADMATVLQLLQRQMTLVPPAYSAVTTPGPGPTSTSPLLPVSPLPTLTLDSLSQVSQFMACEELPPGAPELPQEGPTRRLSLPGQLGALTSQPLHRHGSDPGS
Turning to `CCC1=Nc2cc(C(=O)N3CCCCC3)ccc2Sc2ccc(C)cc21`, the “hERG current change (%, negative = inhibition) at 10uM” value is listed as -15.1%. In the case of `Cc1c(Cl)cccc1N(CC(=O)NC1CCCCC1)S(C)(=O)=O`, the “hERG current change (%, negative = inhibition) at 10uM” value was 7.78%.

`Cc1ccccc1C(=O)Nc1ccnn1C1CCN(C(=O)c2ccoc2)CC1`: the “hERG current change (%, negative = inhibition) at 10uM” value is 10.5%. With `CCN(CC)CCN1C(=O)C(=O)/C(=C(/O)c2c(C)[nH]c(C(=O)OC)c2C)C1c1cccnc1` (stereo not drawn), the “hERG current change (%, negative = inhibition) at 10uM” value is 14.2%. Turning to `O=C(CCCn1c(=O)c2sccc2n(Cc2ccc(F)cc2)c1=O)NCc1ccco1`, the “hERG current change (%, negative = inhibition) at 10uM” value is -30.2%. For `CC1CN(C/C(=N\O)C23CC4CC(CC(C4)C2)C3)CC(C)O1` (stereo not drawn), the “hERG current change (%, negative = inhibition) at 10uM” value is 9.35%. Turning to `C/C(=N\NC(=O)c1nnn(-c2nonc2N)c1-c1ccccc1)c1cccnc1`, the “hERG current change (%, negative = inhibition) at 10uM” value is reported as 9.2%. For `Cc1ccc(OCC(O)CNC2CCCC2)cc1C.Cl` (stereo not drawn) the value was -3.46%; for `COc1ccc(N2C(=O)c3ccc(C(=O)Nc4cc(OC)ccc4OC)cc3C2=O)cc1`, 23.7%; for `Cc1ccc(CN2CC(C(=O)NCCCSc3ccccc3)CC2=O)cc1` (stereo not drawn), -12.6%. Regarding `Cc1ccc(Cc2c(C)nc3nc(SCC(=O)NCCN4CCOCC4)nn3c2C)cc1`, the “hERG current change (%, negative = inhibition) at 10uM” value is given as -9.84%. As for `Cn1cc(SCC(=O)N2CCCc3ccccc32)c2ccccc21`, the “hERG current change (%, negative = inhibition) at 10uM” value is -2.42%. For the compound `CC1(C(=O)NCc2ccccn2)C=CCN1C(=O)c1ccccc1` (stereo not drawn), the “hERG current change (%, negative = inhibition) at 10uM” value was found to be 15.3%.

For the compound `COc1ccc(CNc2ccc(S(=O)(=O)N3CCN(C)CC3)cn2)cc1OC`, the “hERG current change (%, negative = inhibition) at 10uM” value is 6.6%. Turning to `CCOC(=O)C1(CCCc2ccccc2)CCN(C(=O)Cn2nc(C)nc2C)CC1`, the “hERG current change (%, negative = inhibition) at 10uM” value was -24.6%. `CCCc1nc2ccc(NC(C)=O)cc2c(=O)n1Cc1ccccc1Cl`: the “hERG current change (%, negative = inhibition) at 10uM” value is reported as -15.5%.

With `CCN1C(=O)c2ccccc2S(=O)c2ccc(C(=O)N3CCN(C(=O)c4ccco4)CC3)cc21` (stereo not drawn), the “hERG current change (%, negative = inhibition) at 10uM” value is given as -10.6%. Take `O=C(Oc1ccc(-c2nccc(-c3ccccn3)n2)cc1)c1cccc(C(F)(F)F)c1`: the “hERG current change (%, negative = inhibition) at 10uM” value is -0.542%.

Turning to `O=c1[nH]c(=O)n(CC2CCCO2)c(O)c1/C=C1\C=Nc2ccccc21` (stereo not drawn) [22416389], the “hERG current change (%, negative = inhibition) at 10uM” value was 0.635%.

With `Cc1cccc(-c2nc(CSCC(=O)N3CCN(Cc4ccc5c(c4)OCO5)CC3)c(C)o2)c1`, the “hERG current change (%, negative = inhibition) at 10uM” value is -22.2%. Regarding `Cc1c(NC(=O)c2ccc(NC(=O)C3CC3)cc2)cccc1C(=O)O`, the “hERG current change (%, negative = inhibition) at 10uM” value is 12.5%. With `Cc1cccc(C)c1NC(=O)CC(NCCc1ccccc1)C(=O)O` (stereo not drawn), the “hERG current change (%, negative = inhibition) at 10uM” value is reported as -1.83%. Regarding `O=C(N/N=C/C(Br)=C/c1ccccc1)C(O)c1ccccc1` (stereo not drawn), the “hERG current change (%, negative = inhibition) at 10uM” value is -3.43%. `CCN1CCN(CCCNC(=O)c2ccc3c(=O)n(CCc4ccccc4)c(=O)[nH]c3c2)CC1`: the “hERG current change (%, negative = inhibition) at 10uM” value worked out at 15%.

For `COCCCNC(=O)COc1ccc(Br)cc1Cl`, the “hERG current change (%, negative = inhibition) at 10uM” value is recorded as -7.88%. As for `CCOc1ccc(NC(=O)CCN2C(=O)C3CCCCC3C2=O)cc1OCC` (stereo not drawn), the “hERG current change (%, negative = inhibition) at 10uM” value was 4.35%.

As for `CCN1C(=NCCc2c[nH]c3ccccc23)N[C@@H](c2ccccc2)[C@H](C(=O)OC)[C@H]1C`, the “hERG current change (%, negative = inhibition) at 10uM” value is reported as 7.52%.

On to `COc1cccc(C2c3c(oc4ccc(F)cc4c3=O)C(=O)N2CCCN2CCOCC2)c1` (stereo not drawn), for which the “hERG current change (%, negative = inhibition) at 10uM” value is on record as -31.5%. For `O=C(CN1C(=O)C(c2ccc(F)cc2)=NC12CCCC2)Nc1ccc(F)cc1`, the “hERG current change (%, negative = inhibition) at 10uM” value is on record as -5.39%. With `COc1cccc2cc(C(=O)NCCc3ccccc3)c(=O)oc12` the figure was 17.4%; with `CCC1(C)Cc2c(sc3nnn(CC(=O)Nc4ccccc4C)c(=O)c23)CO1` (stereo not drawn), -58.4%. In the case of `CCOc1ccccc1NC(=O)C1C2CCC3C(CCC21)C3(Cl)Cl` (stereo not drawn), the “hERG current change (%, negative = inhibition) at 10uM” value was -13.4%. Consider `COc1ccc(NC(=O)CCc2nc(-c3ccc(C)cc3)no2)c(OC)c1`, for which the “hERG current change (%, negative = inhibition) at 10uM” value is given as 4.23%.

For the compound `CCn1c(CNc2ccc(C)cc2C)nnc1SCC(=O)N1CCCc2ccccc21`, the “hERG current change (%, negative = inhibition) at 10uM” value was -20.3%. Regarding `Cc1cc(C(=O)CCC(=O)NCc2ccccc2F)c(C)s1`, the “hERG current change (%, negative = inhibition) at 10uM” value amounted to 8.28%. With `Cc1cc(C(F)F)n2ncc(C(=O)N3CCC(C(N)=O)CC3)c2n1`, the “hERG current change (%, negative = inhibition) at 10uM” value was 16.1%. Consider `Cc1ccc2c(cnn2C(=O)CCC(=O)NCc2cccc(Br)c2)c1`, for which the “hERG current change (%, negative = inhibition) at 10uM” value turned out to be 9.82%. For `Cc1ccc(S(=O)(=O)c2ncccc2N)cc1` the value was 12.4%; for `CC(=O)N1CCN(CC(=O)O)CC1`, 3.69%. With `COc1ccc(/C(CC2OC(=O)c3ccccc32)=N\NC(N)=O)cc1` (stereo not drawn) the figure was 0.79%. With `CCOC(=O)N1CCN(S(=O)(=O)N2CCCC(C(=O)NCc3cccc(OC)c3)C2)CC1` (stereo not drawn), the “hERG current change (%, negative = inhibition) at 10uM” value is -19.5%. With `COC(=O)c1sccc1-c1ccc(C(=O)Nc2ccccc2)o1`, the “hERG current change (%, negative = inhibition) at 10uM” value is on record as -23.1%. In the case of `COC(=O)c1cccnc1NC(=S)NC1CCCCC1`, the “hERG current change (%, negative = inhibition) at 10uM” value turned out to be 15.2%. Take `COc1ccc(C(=O)NC2CCCc3c2cnn3-c2cccc(C)c2C)c(OC)n1` (stereo not drawn): the “hERG current change (%, negative = inhibition) at 10uM” value is listed as -29.9%.

With `Cc1cc(C)n2nnnc2c1C#N`, the “hERG current change (%, negative = inhibition) at 10uM” value is 16.1%. Take `CCOC(=O)c1cccc(NC(=O)c2ccco2)c1`: the “hERG current change (%, negative = inhibition) at 10uM” value is reported as -28.6%.

In the case of `COc1cccc(CNC(=O)CSc2nnc3c(n2)[nH]c2ccc(OC)cc23)c1`, the “hERG current change (%, negative = inhibition) at 10uM” value is given as 3.05%. Consider `COc1ccccc1NC(=O)CSc1nc(O)cc(=O)n1C`, for which the “hERG current change (%, negative = inhibition) at 10uM” value was found to be 9.27%. In the case of `NS(=O)(=O)c1ccc(CCNC(=S)Nc2ccccc2)cc1`, the “hERG current change (%, negative = inhibition) at 10uM” value is recorded as -10.9%. For `O=[N+]([O-])c1ccc(C2[C@H]3C(c4ccccc4)=NC4(CCCCC4)N23)cc1` (stereo partly drawn), the “hERG current change (%, negative = inhibition) at 10uM” value turned out to be 30.5%. For the compound `Cc1ccccc1/C=N/Nc1ccc(Cl)nn1`, the “hERG current change (%, negative = inhibition) at 10uM” value came out at 24.1%. For `CCN(CC)CCN1C(=O)c2oc3ccccc3c(=O)c2C1c1ccccc1` (stereo not drawn), the “hERG current change (%, negative = inhibition) at 10uM” value is given as -18.9%.

For `Fc1ccccc1-c1nnc2c3ccccc3nc(N3CCOCC3)n12`, the “hERG current change (%, negative = inhibition) at 10uM” value was -9.92%. With `CCOC(=O)C(=CNc1cc(C)ccc1[N+](=O)[O-])C(=O)OCC` the figure was -12.5%. In the case of `O=C(Cn1c(=O)[nH]c2ccccc2c1=O)Nc1ccc2c(c1)OCO2`, the “hERG current change (%, negative = inhibition) at 10uM” value worked out at 14.5%.

Consider `COc1ccc(S(=O)(=O)N(C)CC(=O)N2CCN(c3ccc(F)cc3)CC2)cc1OC`, for which the “hERG current change (%, negative = inhibition) at 10uM” value is -44%.

In the case of `CCCCc1nc(Cl)c(CO)n1Cc1ccc(-c2ccccc2-c2nn[n-]n2)cc1.[K+]`, the “hERG current change (%, negative = inhibition) at 10uM” value is -0.856%. With `CCOc1ccc(-c2nc[nH]c2[N+](=O)[O-])cc1` the figure was 27%; with `CCOCCCNc1nc2c(C)cccn2c(=O)c1/C=C1\SC(=S)N(CC(C)C)C1=O`, 24.4%. For `CCOc1cc(C=O)cc(Br)c1OCC(N)=O` the value was 2.71%; for `O=C(c1ccco1)N1CCN(CC(O)COc2ccc(Br)cc2)CC1` (stereo not drawn), -72.6%; for `COc1ccc(Nc2nc3cc(C)ccc3cc2C#N)cc1`, -32.4%. With `COc1ccccc1OCCC(=O)OCC(=O)NCc1ccccc1` the figure was -0.671%; with `C=CCOc1cccc(C(=O)N2CCC(CCC(=O)NC3CC3)CC2)c1`, -9.51%. Consider `CCOC(=O)c1c(NC(=O)CSc2nc3ccccc3o2)sc(C)c1C`, for which the “hERG current change (%, negative = inhibition) at 10uM” value turned out to be 19.4%. With `CCOc1ccc(CCNC(=O)c2ccc3nc(CC)c(CC)nc3c2)cc1` the figure was 15.3%; with `CCOC(=O)CSc1nnc(Cn2nnc(-c3ccccc3)n2)n1CC`, -10.4%. Consider `COc1ccccc1-c1sc2ccccc2c1-c1ccc2c(c1)OCCO2`, for which the “hERG current change (%, negative = inhibition) at 10uM” value is 6.94%. With `CCOC(=O)C(CCOc1cccc(CC)c1)C(=O)OCC`, the “hERG current change (%, negative = inhibition) at 10uM” value was 6.01%.

For `COc1ccccc1CNC(=O)COC(=O)[C@H](Cc1c[nH]c2ccccc12)NC(=O)c1cccs1`, the “hERG current change (%, negative = inhibition) at 10uM” value is -6.21%. With `COc1ccc(NC(=O)CSc2nc3ccc(OC)cc3[nH]2)cc1` the figure was 0.906%; with `CC(C)c1ccc(CNC(=O)C(=O)Nc2nccs2)cc1`, 34.9%. Consider `Cc1ccc(S(=O)(=O)CCc2nc3ccccc3[nH]2)cc1C`, for which the “hERG current change (%, negative = inhibition) at 10uM” value was -2.03%.

Regarding `O=[N+]([O-])c1ccc(COc2ccc(CNc3ccccc3)cc2)cc1`, the “hERG current change (%, negative = inhibition) at 10uM” value was found to be 4.33%. Turning to `CC(NC(=O)C(=O)NCCN1CCN(C(=O)c2ccc([N+](=O)[O-])cc2)CC1)c1ccccc1` (stereo not drawn), the “hERG current change (%, negative = inhibition) at 10uM” value is -75.1%. As to `COc1ccc(NCc2nnc(SCC(=O)NNC(=O)c3ccc(C)cc3)n2C)cc1`, the “hERG current change (%, negative = inhibition) at 10uM” value amounted to 11.3%. Take `COn1cnnc1-c1ccccc1`: the “hERG current change (%, negative = inhibition) at 10uM” value was 1.1%. For `Cc1ccc2c(CN3CCN(Cc4ccccc4)CC3)cc(=O)oc2c1`, the “hERG current change (%, negative = inhibition) at 10uM” value is listed as -78.9%. With `O=C(Nc1ncccc1O)c1cccc(S(=O)(=O)N2CCCc3ccccc32)c1` the figure was -10.3%; with `COc1ccc(N2CCN(S(=O)(=O)c3cccc(C(F)(F)F)c3)CC2)cc1`, -1.33%. As for `Cc1ccc(/C=N/Nc2nc(N3CCOCC3)nc(N3CCOCC3)n2)o1`, the “hERG current change (%, negative = inhibition) at 10uM” value is listed as 4.82%. For `CCN1CCN(C(=O)CN(C)S(=O)(=O)c2cc(C)ccc2OC)CC1`, the “hERG current change (%, negative = inhibition) at 10uM” value amounted to 22.4%. On to `CCCCC(=O)Nc1ccc(C(=O)Nc2ccc(S(=O)(=O)N3CCCC3)cc2)cc1`, for which the “hERG current change (%, negative = inhibition) at 10uM” value is recorded as 10.2%. For `C/C=N/NC(=O)CCCC(=O)N/N=C/C` the value was 21.9%.

For `O=C(NC1CCCCC1)C1CCC(=O)N(C2CC2)C1` (stereo not drawn), the “hERG current change (%, negative = inhibition) at 10uM” value was 25.9%. Turning to `CCOC(=O)c1ccc2c(c1)N(Cc1ccccc1C)C(=O)c1ccccc1S2=O` (stereo not drawn), the “hERG current change (%, negative = inhibition) at 10uM” value was -23.8%. For the compound `COc1ccccc1N1CCN(Cc2ccc(Br)cc2)CC1.O=C(O)C(=O)O`, the “hERG current change (%, negative = inhibition) at 10uM” value was -70.3%.
